The record followed here is the supplement of paper PMC11417369.

The other results are listed elsewhere or left out.

The test has as its system PfAP2-HC AP2 domain (GST-tagged). Briefly: gcPBM binding intensity (ln(normalized median fluorescence intensity)); higher = stronger DNA binding. Summed up: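 In this array assay, P. falciparum DNA-binding domains with a GST tag, expressed in E. coli, were applied for 1 h to primer-extended double-stranded 36-bp intergenic genomic probes and negative controls on an Agilent 4 × 180k array. Bound protein was visualised with Alexa488 anti-GST antibody at 488 nm. Binding intensity is the highest Masliner-normalised natural-log median intensity across replicate spots of either probe orientation.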
For the sequence “TTTTTTTTTTTTTTATGTACACATCTAAAAAAAAGG [XGTACX_site2067]”, the “gcPBM binding intensity (ln)” value came out at 9.18.

In the case of “GCCCCCTAAAAAATTACACACGAAAAAAATGAATTT [CACACA_site9128]”, the “gcPBM binding intensity (ln)” value came out at 9.95.

Turning to “TAAGTATAAAAAAATAGTACAATTATGAAATATCGT [XGTACX_site2529]”, the “gcPBM binding intensity (ln)” value was determined as 9.73.

With “GGTCTAACAACATGCGCACACACATGAATATTCATA [CACACA_site1539]”, the “gcPBM binding intensity (ln)” value was determined as 10.1.

For the sequence “TTTAACAAGTTAAACACACATACATATATACATATA [CACACA_site2536]”, the “gcPBM binding intensity (ln)” value is 9.71.

As to “AACAAAATTGAAGGAACACACATACATATTTATATA [CACACA_site6227]”, the “gcPBM binding intensity (ln)” value was determined as 10.1.

Turning to “AAAAAATTAGATTATGCACACACACTAATAAATAAT [CACACA_site8604]”, the “gcPBM binding intensity (ln)” value was 10.2.

Regarding “TTTATTTAAGAAAAATGTACAGGTTCATTTCATAAT [XGTACX_site27]”, the “gcPBM binding intensity (ln)” value was 9.36.

Turning to “CATATAAATACATGCACACAAAAATATCAATACATT [CACACA_site2392]”, the “gcPBM binding intensity (ln)” value is 9.95.

As to “TATAAAAATATATATATATATATATATATAATATGT [TGCATGCA_negctrl_site85]”, the “gcPBM binding intensity (ln)” value was determined as 9.52.

“TTAAAAAAAAAACACACACACATACCCATATATATA [CACACA_site5768]”: the “gcPBM binding intensity (ln)” value is 10.4.

With “ATTTGTTCCTTGGGAGTTTACTTTTTTTTAATTTTA [CACACA_negctrl_site638]”, the “gcPBM binding intensity (ln)” value stood at 9.73.

Take “TTCTTTTTAATTAATACACACACACCCATATATATA [CACACA_site8719]”: the “gcPBM binding intensity (ln)” value is 10.2.

With “ACATGTGAACATTCAATGCACACGATGTAATTATAC [CACACA_site14]”, the “gcPBM binding intensity (ln)” value amounted to 9.84.

In the case of “ATGTGTTAAAAATGCACACAAAAAAATATACATATA [CACACA_site295]”, the “gcPBM binding intensity (ln)” value was 10.2.

Turning to “ATATTATATATATACACACACACATGCATGCACCTA [CACACA_site106]”, the “gcPBM binding intensity (ln)” value turned out to be 10.7.

As for “TTTTTTAAATATATGGTGCATAGAAAGATATTATAC [GTGCAC_site9984]”, the “gcPBM binding intensity (ln)” value was 9.47.

Turning to “TTTAAAAAAAGCAGTACATGCAAAATAATAACAAGC [TGCATGCA_site392]”, the “gcPBM binding intensity (ln)” value amounted to 10.1.

As for “TAAAAAAATATTACATGTACATAAAATATATATATA [XGTACX_site4633]”, the “gcPBM binding intensity (ln)” value came out at 9.63.

For “CAATTATATAATTGAAGTACTAGGAAAGATATATAT [XGTACX_site5459]”, the “gcPBM binding intensity (ln)” value turned out to be 9.75.

“CTTAAATTTTACTGAAGTACAAAATCGGTTCAATGA [XGTACX_site3292]”: the “gcPBM binding intensity (ln)” value was found to be 9.36.

In the case of “TATACATATTTTTTTTGTACATATATAATATATATA [XGTACX_site2399]”, the “gcPBM binding intensity (ln)” value worked out at 9.56.

“GGGAAAAAAAAAAGCACACATACGTAAATATATAAC [CACACA_site226]”: the “gcPBM binding intensity (ln)” value amounted to 10.1.

Turning to “AATTAAATTCGGTACTGTACATTTCAAAAATATACG [XGTACX_site48]”, the “gcPBM binding intensity (ln)” value is 9.51.

“AATACCATAATCAATGCACACATAACAAAATATTAT [CACACA_site8873]”: the “gcPBM binding intensity (ln)” value came out at 10.1.

For the sequence “TACGAAAAAAAAAAAAAAAAAAAAAAACACAAAAAA [CACACA_negctrl_site1643]”, the “gcPBM binding intensity (ln)” value stood at 9.3.

“TTTTAATATTTTAAGAGTACAGAAATATATAATATG [XGTACX_site4955]”: the “gcPBM binding intensity (ln)” value was found to be 9.33.

On to “ATTTTATAACATTCATGTACACATTTCATTTATTTG [XGTACX_site3028]”, for which the “gcPBM binding intensity (ln)” value turned out to be 9.78.

In the case of “CATATAAATATATATACACACACACCGTAATACATA [CACACA_site9158]”, the “gcPBM binding intensity (ln)” value was 10.8.

On to “AGAGACACTTTTTATTGTACAAGAGGAGGTTACCTT [XGTACX_site8768]”, for which the “gcPBM binding intensity (ln)” value came out at 9.6.

Regarding TTTTTATATTTTATAGTGCAAAAACTTACATAAAAT, the “gcPBM binding intensity (ln)” value was found to be 9.54.

For “ATATAATGGACCATAGTGCATAAAAATAACAAAAAA [GTGCAC_site9558]”, the “gcPBM binding intensity (ln)” value came out at 9.84.

On to “TATTTTTTTTCTTTATTTATAACGCTCAATATATTC [GTGCAC_negctrl_site265]”, for which the “gcPBM binding intensity (ln)” value worked out at 9.64.

Regarding “TGGAAATATATATATATATATACATATATATATAGC [XGTACX_negctrl_site107]”, the “gcPBM binding intensity (ln)” value turned out to be 9.54.

On to “TATGAAGAAAAGAATTGTACGATGTTTATTTTGTAT [XGTACX_site8614]”, for which the “gcPBM binding intensity (ln)” value stood at 9.59.

In the case of “TGTTAATAGAAATACGTGCACACTAAAGGGAAAACA [CACACA_site1485]”, the “gcPBM binding intensity (ln)” value was found to be 9.88.

On to “TTGTTATCTACCTGTAGTACATATATTATGTAATAT [XGTACX_site735]”, for which the “gcPBM binding intensity (ln)” value was 9.71.

Regarding “TAAATATATATATACACACACACCAAAGCAATAGAT [CACACA_site2940]”, the “gcPBM binding intensity (ln)” value stood at 10.6.

On to “ATTAAATATGTCAAGTGTACAAAATGTAAAAAAAAA [XGTACX_site4119]”, for which the “gcPBM binding intensity (ln)” value was determined as 10.1.

Take “TTATATATACCTAAGACACACACATATATATATATA [CACACA_site8153]”: the “gcPBM binding intensity (ln)” value was found to be 10.2.

In the case of “GCCATTGTACCATCCACACACATATAAATATGTATA [CACACA_site7303]”, the “gcPBM binding intensity (ln)” value worked out at 10.

For the sequence “TATATAACATATAACACACATACTTAGTATTACATA [CACACA_site3099]”, the “gcPBM binding intensity (ln)” value stood at 9.8.

Turning to “ACAGTATCAATATGGATAAAAATGTCCATATGCCTG [TGCATGCA_negctrl_site482]”, the “gcPBM binding intensity (ln)” value came to 9.6.

For “CTATATCATTTTCTAGCACACACATTGTTATTACCT [CACACA_site8204]”, the “gcPBM binding intensity (ln)” value worked out at 10.2.
